Measurements: PubChem BioAssay AID485313 (National Center for Advancing Translational Sciences (NCATS), 2010)
“And” between values parts separate entries of the source, which are not always exact repeats. Equal entries are not always repeated. Among all 320,000 compounds or so, about 7,600 (2.4%) were called active. This list was built around the results that the source calls inconclusive (neither active nor inactive); the mix of calls is not that of the screen. Calls come from the whole dose curve; as a rule, active = well fitted activation curve with a large enough effect; inconclusive = small, poorly fitted or top-dose-only effect; inactive = no such curve, though single readings can be large or run the other way. No potency is given beside an inconclusive call; the fits are too rough.
Potency is the fitted concentration of half-maximal effect; tags give direction and shape of the fitted curve.

Test: qHTS Assay for NPC1 Promoter Activators; note: nearly all actives have a fitted effect of over 60% in size;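 for activation: reporter is driven by a mutant NPC1 promoter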
Settings: Huh7 NPC1 promoter luciferase reporter, 24 h; series mostly up to 9.22 µM
Summary of the method: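 Quantitative HTS used a cell-based reporter: Huh7 cells stably bearing the NPC1 promoter upstream of luciferase were treated with compounds for 24 h, and promoter activation was read as luminescence.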
For `c1ccc(-c2noc(-c3ccc4c(c3)OCO4)n2)cc1`, the Potency was active: 0.447 µM. With `CC1=[N+](CC(=O)c2ccccc2)CCn2cccc21` the Potency was inconclusive [activator, single point]. In the case of `O=C(NCc1cccc(F)c1F)C1CCC(=O)N(C2CCCCCC2)C1` (stereo not given), the Potency was “inactive”. With `O=C(N/N=C/c1cccc(Cl)c1)c1c(O)c2c([nH]c1=O)CCCC2` the Potency was active: 2.82 µM. With `COC(=O)c1ccc(NC(=O)c2cccc(OC)c2)cc1` the Potency was inconclusive [activator, single point]. With `N#Cc1c(N2CCCC2)nsc1-c1ccccc1` the Potency was inconclusive [activator, single point]. With `Cc1ccc(/C(N)=N/OC(=O)c2ccc3c(c2)OCO3)cc1` the Potency was active: 3.16 µM. With `CCOC(=O)c1ccc(NC(=O)/C=C/c2cccs2)cc1` the Potency was inconclusive [activator, partial curve]. In the case of `O=C(CSc1nncs1)Nc1ccc(N2CCCCC2)cc1`, the Potency was “inactive”. With `N#Cc1ccccc1S(=O)(=O)N1CCN(CC(O)COc2ccccc2F)CC1` (stereo not given) the Potency was “inactive”. In the case of `CCN(CC)c1ccc(NC2CC(=O)N(CCc3ccc(OC)cc3)C2=O)cc1` (stereo not given), the Potency was “inactive”. In the case of `CCOC(=O)C(=O)Nc1ccc(S(=O)(=O)Nc2nccs2)cc1`, the Potency was “inactive”. In the case of `CC1CCc2c(C(=O)Nc3ccccn3)csc2C1` (stereo not given), the Potency was active: 3.55 µM. For `Cc1cc(/C=C2\NC(=S)N(C)C2=O)ccc1N1CCCC1`, the Potency was inconclusive [activator, single point]. With `O=C(NC(=S)Nc1ccc2nc[nH]c2c1)c1ccccc1` the Potency was active: 2.82 µM. In the case of `COc1ccc2[nH]c3c(c2c1)CCNC3C1CC=C(C)CC1` (stereo not given), the Potency was “inactive”. With `Brc1ccc(/C=N/c2nc3ccccc3n2CCN2CCOCC2)cc1` the Potency was “inactive”. For `c1ccc(-c2noc(-c3cccc4ccccc34)n2)nc1`, the Potency was inconclusive [activator, single point]. With `Cc1ccc(OC(C)C(=O)Nc2ccncc2)cc1C` (stereo not given) the Potency was “inactive”. In the case of `COc1ccc(CNc2nc3ccccc3n2C)c(O)c1`, the Potency was active: 2.51 µM. For `C=CCc1ccc(OCCn2cccc2C=O)c(OC)c1`, the Potency was inconclusive [activator, full curve]. In the case of `COc1ccc(OC)c(S(=O)(=O)Nc2ccc(O)c3ccccc23)c1`, the Potency was “inactive”. In the case of `COCn1c(COc2ccc3ccccc3c2)nc2ccccc21`, the Potency was active: 2.82 µM. In the case of `CCn1cc(S(=O)(=O)N2CCc3ccccc3C2)cn1`, the Potency was “inactive”. For `Cn1ccc(C(=O)N/N=C/c2ccccc2[N+](=O)[O-])n1`, the Potency was inconclusive [activator, partial curve]. With `O=C(Nc1ccc(F)cc1F)NC1CCCCCCC1` the Potency was inconclusive [activator, single point]. With `COc1ccc(NC(=O)C2CCCO2)cc1` (stereo not given) the Potency was “inactive”. In the case of `CCN(CC)S(=O)(=O)c1ccc(N=Nc2c(C)[nH]n(C(N)=S)c2=O)cc1`, the Potency was inconclusive [activator, partial curve]. With `COc1ccccc1CCC(=O)N1CCC(n2nccc2NC(=O)C2CCOC2)CC1` (stereo not given) the Potency was “inactive”. In the case of `CCc1noc(C)c1C(=O)N1CCN(S(=O)(=O)c2ccc(Cl)s2)CC1`, the Potency was “inactive”. In the case of `COc1ccc(/C(N)=N/OC(=O)c2ccc(Br)o2)cc1`, the Potency was inconclusive [activator, single point]. For `Cc1cccc(NC(=O)c2ccc(C(=O)c3ccccc3)cc2)n1`, the Potency was inconclusive [activator, partial curve]. In the case of `CN1/C(=C\C(=O)c2cccc([N+](=O)[O-])c2)Sc2ccccc21`, the Potency was active: 1.26 µM. For `CCN1CCN(C(=O)c2cc3ccc(OC)cc3[nH]2)CC1`, the Potency was inconclusive [activator, single point]. For `O=C(NC(=S)Nc1ccc2ncccc2c1)c1ccccc1`, the Potency was active: 2.82 µM. In the case of `S=C(Nc1ccccn1)c1ccccn1`, the Potency was active: 1.58 µM and active: 2.82 µM. In the case of `Oc1ccccc1C=NCCN=Cc1ccccc1O`, the Potency was “inactive”. With `COc1ccc(NC(=O)c2ccccc2F)cc1Cl` the Potency was active: 2.24 µM. In the case of `CCOC(=O)c1snc(C(=O)NC2CCCCC2)c1N`, the Potency was inconclusive [activator, partial curve]. For `CCCn1nc(NC(=O)C2CCCO2)c2cc3cc(C)ccc3nc21` (stereo not given), the Potency was inconclusive [activator, partial curve]. For `O=C(CCN1C(=O)/C(=C/C=C/c2ccccc2)SC1=S)Nc1cccnc1`, the Potency was “inactive”. With `Cc1cn(CCC(=O)Nc2ccccc2N2CCOCC2)c2ccccc12` the Potency was inconclusive [activator, single point]. For `COc1cc(/C=C(\C#N)c2nnc(N3CCOCC3)n2-c2ccccc2)ccc1O`, the Potency was “inactive”. For `CCN(CCn1cccn1)C(=O)c1cc(COc2ccccc2SC)on1`, the Potency was active: 2 µM. For `COc1ccc(/C=C/C(=O)Nc2ccccc2C(F)(F)F)cc1`, the Potency was inconclusive [activator, partial curve]. With `O=C(Nc1ccc(NC(=O)c2ccco2)cc1)c1cnccn1` the Potency was inconclusive [activator, partial curve]. In the case of `CCCCOC(=O)c1ccc(NC(=O)C2CCCO2)cc1` (stereo not given), the Potency was “inactive”. In the case of `O=C(c1ccc2c(c1)OCO2)N1CCc2ccccc2C1`, the Potency was inconclusive [activator, single point]. In the case of `Cc1ccc(-c2ccc(=O)[nH]n2)cc1`, the Potency was “inactive”. In the case of `Cn1nnnc1SCC(=O)Nc1ccccc1N1CCCCC1`, the Potency was inconclusive [activator, single point]. With `CCc1nnc(NC(=O)c2cccc(NC(=O)C(C)C)c2)s1` the Potency was inconclusive [activator, partial curve]. With `CCOC(=O)N/N=C/c1c(C)nn(-c2ccccc2Cl)c1Cl` the Potency was inconclusive [activator, single point]. For `Cc1c(/C=N\NC(=O)c2ccc([N+](=O)[O-])cc2)cnn1C`, the Potency was “inactive”. For `Cc1ccc2c(c1)C1(C)C(C(C)(C)N2C=O)C1(Cl)Cl` (stereo not given), the Potency was “inactive”. In the case of `Cc1cc(C(=O)N/N=C/c2ccc3c(c2)OCO3)c(C)o1`, the Potency was inconclusive [activator, partial curve].
